Inconclusive results, whose numbers are uncertain, are shown with a selection of clear calls. For part of these data: Where the call is inconclusive, the potency comes from a doubtful curve fit. For part of these data: A note “side channel” means that the fit belongs to a control or component signal, not to the main read-out. Active and inactive are the calls of the source. Unless noted, calls follow the shape of the dose curve; as a rule, active = well fitted curve in the direction sought with a large enough effect; inconclusive = small, poorly fitted or top-dose-only effect, or another doubt; inactive = no such curve, though single readings can be large; an effect the other way counts as inactive or inconclusive.
How the values were obtained:
[1] = Cell Viability - NIH 3T3 (AID 541); conditions: NIH 3T3 cell viability, qHTS; activity change, negative = cytotoxicity: at 92.2 µM (top of the series);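 also: cells exposed to compound for 40 hours; plate controls were DMSO alone for no effect and tamoxifen positive control for full effect; nearly all actives have a fitted effect of over 25% in size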
Method in brief: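 AC50 values reflect concentration-dependent loss of intracellular ATP in NIH 3T3 cells after 40 hr treatment in complete culture medium, quantified by luciferase-based luminescence.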

[2] = Cell Viability - LYMP2-015 (AID 971); also: nearly all actives have a fitted effect of over 55% in size; also: potency is read from the fitted curve at half-maximal effect
Method in brief: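 Acute toxicity was scored as a concentration-dependent drop in intracellular ATP in lymphoblastoid cells after 24 hr compound exposure in complete medium. Detection used CellTiter-Glo luciferase luminescence.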

[3] = Cell Viability - LYMP1-003 - Assay at 40 hr (AID 964); conditions: LYMP1-003 lymphoblastoid viability; at 92.2 µM (top of the series); also: % is scaled to controls: 0 for no effect and ±100 for the full control effect; nearly all actives have a fitted effect of over 60% in size
Method in brief: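 This qHTS cytotoxicity screen treats human lymphoblastoid cells (LYMP1-003) with compounds for 40 hr and quantifies cellular ATP via luciferase luminescence.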

[4] = Cell Viability - LYMP2-009 (AID 968); conditions: LYMP2-009 lymphoblastoid cell viability; activity change, negative = viability loss: at 92.2 µM (top of the series); also: potency is read from the fitted curve at half-maximal effect; nearly all actives have a fitted effect of over 55% in size
[5] = Cell Viability - LYMP2-011 (AID 969); also: potency is read from the fitted curve at half-maximal effect; nearly all actives have a fitted effect of over 60% in size
Method in brief: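 Acute toxicity is scored as a concentration-dependent drop in intracellular ATP of a human lymphoblastoid line after 24 hr treatment. Values are AC50s modeled with the Hill equation.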

[6] = Cell Viability - LYMP2-002 (AID 977); also: potency is read from the fitted curve at half-maximal effect;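 as to activity change, negative = cytotoxic: plate controls were DMSO only for no effect and 92 µM tetraoctylammonium bromide for full effect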
Method in brief: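 Luminescent ATP readout (CellTiter-Glo, 30 min room temperature) after 24 h compound exposure at 37 C of a human lymphoblastoid line, 2500 cells/well. AC50 values derived by standard Hill fitting of qHTS concentration-response data.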

[7] = Cell Viability - LYMP2-010 (AID 981);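 also: potency is read from the fitted curve at half-maximal effect; cells exposed to compound for 24 hours at 37 °C; nearly all actives have a fitted effect of over 55% in size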
Method in brief: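 Acute toxicity is scored as a concentration-dependent loss of cellular ATP in human lymphoblastoid cells after 24 hr compound exposure in complete medium. Tetraoctylammonium bromide is the positive control.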

[8] = Cell Viability - LYMP1-002 - Assay at 40 hr (AID 994); conditions: LYMP1-002 lymphoblastoid cell viability; at 92.2 µM (top of the series);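 also: 0% = DMSO only and full inhibition = 92 µM tetraoctylammonium bromide; nearly all actives have a fitted effect of over 60% in size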
Method in brief: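 Viability in the human lymphoblastoid line was measured as intracellular ATP via CellTiter-Glo after 40 hr compound exposure. Tetraoctylammonium bromide served as positive control.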

[9] = qHTS assay for small molecule disruptors of the mitochondrial membrane potential - 1 hr assay (AID 651754; calls by dose curve; also: potency is read from the fitted curve at half-maximal effect; nearly all actives have a fitted effect of over 35% in size); conditions: ratio change, negative = depolarisation: at 92.2 µM (top of the series)
Method in brief: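 Steps: seed HepG2 cells and let attach overnight; pin-transfer compound or vehicle; incubate 1 hr at 37C; add Mito-MPS dye for 30 min; read two-channel fluorescence for monomer and aggregate forms.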

[10] = Cellular Toxicity (caspase-3) Jurkat (AID 655); conditions: Jurkat caspase-3 activation, luminescence, DMSO = 0%, tamoxifen = 100%; at 92.2 µM (top of the series);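 also: cells exposed to compound for 16 h at 37 °C before reading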
Method in brief: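 qHTS in human Jurkat T-cell leukemia line: 16 hr compound treatment at 37 °C, caspase-3/7 activity measured by Caspase-Glo luminescence. AC50 derived from Hill equation.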

[11] = Cellular Toxicity (caspase-3) H-4-II-E (AID 663); conditions: H-4-II-E rat hepatoma, scaled: DMSO 0%, 100 µM tamoxifen 100%; at 92.2 µM (top of the series);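 also: cells exposed to compound for 16 hr before readout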
Method in brief: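 Luminescence from caspase-cleaved aminoluciferin substrate, read 20 min after reagent addition, reports caspase 3/7 activation in rat H-4-II-E cells after 16 hr compound exposure. Normalized to DMSO (basal) and 100 uM tamoxifen (100%); AC50 from Hill fits.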

[12] = Cellular Toxicity (caspase-3) Renal Proximal Tubule (AID 667); conditions: renal proximal tubule cells, primary cells freshly taken from rat; Potency: caspase-3 activation; caspase-3 activation: at 91.7 µM (top of the series), solvent-only wells 0%, staurosporine 100%;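 also: potency is read from the fitted curve at half-maximal effect; cells exposed to compound for 16 hours at 37 °C before detection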
Method in brief: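 Caspase-Glo 3/7 read-out, rat primary kidney proximal tubule cells. Compound exposure 16 h, 37 °C; detection after 1 h at RT. Activity scaled to DMSO and 10 uM staurosporine.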

[13] = Cell Viability - LYMP2-014 (AID 983);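 also: plate controls were DMSO only for no effect and 92 µM tetraoctylammonium bromide for full effect; nearly all actives have a fitted effect of over 50% in size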
Method in brief: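 Decrease in intracellular ATP after 24 hr treatment at 37 C, measured by luciferase luminescence, indicated cytotoxicity. Concentration-response data were fitted with the standard Hill equation to give AC50.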

[14] = biological target: Cytochrome P450 3A4 (Homo sapiens) (UniProt P08684); experiment: qHTS Assay for Inhibitors and Substrates of Cytochrome P450 3A4 (AID 884); conditions: recombinant CYP3A4, Luciferin-PPXE luminescence; activity change, negative = inhibition: at 57.1 µM (top of the series) unless noted; also: % is scaled to controls: 0 for no effect and ±100 for the full control effect; nearly all actives have a fitted effect of over 50% in size
Chain of UniProt P08684 (P08684 whole entry, looked up): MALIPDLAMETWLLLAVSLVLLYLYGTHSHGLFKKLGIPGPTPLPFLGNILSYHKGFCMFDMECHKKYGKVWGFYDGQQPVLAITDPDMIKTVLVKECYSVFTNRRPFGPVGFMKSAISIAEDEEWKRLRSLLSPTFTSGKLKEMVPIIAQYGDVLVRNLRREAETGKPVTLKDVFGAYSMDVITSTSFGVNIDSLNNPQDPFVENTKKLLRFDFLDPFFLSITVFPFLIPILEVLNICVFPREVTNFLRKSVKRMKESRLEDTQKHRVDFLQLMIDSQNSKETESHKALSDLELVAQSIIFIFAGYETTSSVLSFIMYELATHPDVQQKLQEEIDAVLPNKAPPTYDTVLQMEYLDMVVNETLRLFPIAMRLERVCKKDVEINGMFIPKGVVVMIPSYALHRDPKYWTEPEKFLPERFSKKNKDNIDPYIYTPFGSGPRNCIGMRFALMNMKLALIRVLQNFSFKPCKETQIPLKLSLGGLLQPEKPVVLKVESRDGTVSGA
Method in brief: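 20 nM human CYP3A4 with 25 uM Luciferin-PPXE (at KM) in 200 mM KPO4, preincubated 10 min with compound; NADPH regeneration started a 60 min RT reaction. Luciferin detected by luminescence, normalized to 57 uM ketoconazole as full inhibition.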

[15] = Cell Viability - LYMP1-003 - Assay at 24 hr (AID 963); conditions: LYMP1-003 lymphoblastoid cell viability; at 92.2 µM (top of the series);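 also: plate controls were DMSO only for no effect and tetraoctylammonium bromide positive control for full effect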
Method in brief: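 Acute toxicity in LYMP1-003 lymphoblastoid cells: 24 hr compound treatment at 37 C, ATP measured with CellTiter-Glo after 30 min at room temperature. AC50 derived by fitting the Hill equation to qHTS titrations.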

[16] = biological target: Cytochrome P450 3A4 (Homo sapiens) (UniProt P08684); experiment: qHTS Assay for Activators of Cytochrome P450 3A4 (AID 885); also: potency is read from the fitted curve at half-maximal effect; nearly all actives have a fitted effect of over 65% in size
Method in brief: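 20nM CYP3A4 + 25uM Luciferin-PPXE (=KM), 200mM KPO4; cpd 10 min RT; NADPH regen, 60 min RT; stop w/ detection buffer, 20 min; luminescence. Normalized to 57 uM ketoconazole.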

[17] = Cell Viability - LYMP2-013 (AID 970);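 also: 0% = DMSO only and full inhibition = tetraoctylammonium bromide control; nearly all actives have a fitted effect of over 55% in size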
Method in brief: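 Acute toxicity was measured in human lymphoblastoid cells (2500/well) exposed to compound titrations for 24 hr, with ATP luminescence (CellTiter-Glo) as read-out and AC50 fitted by Hill equation.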
Tags tell the direction and shape of the fitted curve.

c1ccc2c(c1)-c1cccc3c1c-2cc1ccccc13
activity change, negative = cytotoxicity [1]: inconclusive: -31.9% | Potency [2]: inactive

Nc1ccc2c(c1)C(=O)c1ccccc1C2=O
activity change, negative = cytotoxicity [1]: inconclusive: -51% | activity change, negative = cytotoxic [3]: inactive: -22.3% | Potency [4]: inconclusive: 50.1 µM [cytotoxic, partial curve, poor fit] | Potency [5]: inconclusive: 79.4 µM [cytotoxic, single point] | Potency [2]: inconclusive: 25.1 µM [cytotoxic, partial curve, poor fit] | Potency [6]: inconclusive: 31.6 µM [cytotoxic, partial curve, poor fit] | Potency [7]: inconclusive: 25.1 µM [cytotoxic, full curve] | viability change, negative = cytotoxic [8]: inactive: -20.7% | Potency [9]: active: 1.33 µM

OC1CCCCC1
caspase-3 activation [10]: inactive: 0.4%

Nc1ccc(N=Nc2ccccc2)c(N)c1
caspase-3 activation [11]: inactive: -4.47%

Cc1cc2nc(N)sc2cc1C
Potency [12]: inconclusive: 3.16 µM [falling, full curve] | Potency [13]: inactive

CC(C)COC(=O)COc1cc(Cl)c(Cl)cc1Cl
Potency [14]: inactive | viability change, negative = cytotoxic [15]: inactive: -5.55% | Potency [9]: inconclusive: 39.8 µM [side channel, rising, partial curve]

CC=C(Cl)Cl
Potency [14]: inactive

CC(=O)OC(C(=O)c1ccccc1)c1ccccc1 (centres undefined)
Potency [16]: inconclusive: 25.1 µM [activator, partial curve]

C=Cc1cccc(C)c1
activity change, negative = cytotoxic [3]: inactive: 0.203%

c1cc2c3c(c1)ccc1cccc(c13)C2
Potency [4]: inconclusive: 79.4 µM [cytotoxic, single point] | Potency [6]: inactive

O=C(/C=C/c1ccc(O)c(O)c1)OC1C[C@](O)(C(=O)O)C[C@@H](O)[C@H]1O (some centres undefined)
Potency [17]: inactive
